According to EP0622356A1, “Indoloylguanidine derivatives as inhibitors of sodium-hydrogen exchange” (SUMITOMO PHARMACEUTICALS COMPANY, LIMITED, priority 1993, dated 1994):
Where a name gives a salt, the structure may show the parent alone. At least one structure is not confirmed: it was looked up by name or label, or the drawing left a doubt.

Molecular target: T1, Na⁺/H⁺ exchanger (Rattus norvegicus, UniProt P26431)
T1 construct: using the vascular smooth muscle cells isolated from the rat thoracic aorta; endogenous in cells; host or cells: primary vascular smooth muscle cells isolated from rat thoracic aorta
Experiment: Inhibition of Na⁺/H⁺ exchanger activity in vitro (change in cell viability during acid loading)
Assay type: cell-based
Parameters: key: * : not measurable due to cytotoxicity
Conditions: cells marked *: not measurable due to cytotoxicity
Procedure: The experiment was performed by modifying the method of Mungre et al. described in Exp. Cell Res., 193, 236 (1991). That is, inhibition of the Na⁺/H⁺ exchanger activity was evaluated by the change in cell viability during acid loading, using the vascular smooth muscle cells isolated from the rat thoracic aorta.
The compounds of the present invention shown in Examples were evaluated by the minimum effective concentration (MEC) for the inhibition of the Na⁺/H⁺ exchanger activity.

T1 sequence (P26431 whole entry): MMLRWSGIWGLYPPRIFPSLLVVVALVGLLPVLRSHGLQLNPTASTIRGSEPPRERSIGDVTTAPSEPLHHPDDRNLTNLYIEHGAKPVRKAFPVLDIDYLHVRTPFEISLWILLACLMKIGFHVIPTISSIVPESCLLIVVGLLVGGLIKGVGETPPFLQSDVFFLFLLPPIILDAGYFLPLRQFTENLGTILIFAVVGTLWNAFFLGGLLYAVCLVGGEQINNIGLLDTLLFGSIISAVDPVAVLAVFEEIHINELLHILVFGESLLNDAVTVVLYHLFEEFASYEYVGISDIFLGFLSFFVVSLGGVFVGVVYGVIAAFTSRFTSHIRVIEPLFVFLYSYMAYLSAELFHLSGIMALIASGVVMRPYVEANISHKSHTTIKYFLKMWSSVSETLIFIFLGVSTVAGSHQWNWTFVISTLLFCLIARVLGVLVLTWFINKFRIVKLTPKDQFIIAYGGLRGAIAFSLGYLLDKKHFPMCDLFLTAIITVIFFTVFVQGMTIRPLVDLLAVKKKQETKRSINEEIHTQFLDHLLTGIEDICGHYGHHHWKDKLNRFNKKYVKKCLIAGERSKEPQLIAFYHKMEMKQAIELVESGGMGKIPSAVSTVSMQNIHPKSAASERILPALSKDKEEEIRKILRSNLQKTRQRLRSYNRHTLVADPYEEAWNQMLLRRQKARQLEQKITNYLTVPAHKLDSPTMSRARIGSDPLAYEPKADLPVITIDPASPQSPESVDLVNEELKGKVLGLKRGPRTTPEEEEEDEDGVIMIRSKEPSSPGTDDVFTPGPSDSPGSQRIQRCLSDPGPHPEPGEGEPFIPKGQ

| Structure (SMILES) | Inhibition of Na^+/H^+ Exchanger MEC |
| --- | --- |
| Cn1c(C(=O)N=C(N)N)cc2cccc(NC(=O)c3ccccc3)c21 [Example 105, 7-Benzamido-1-methyl-2-indoloylguanidine hydrochloride] | * |
| Cn1c(C(=O)N=C(N)N)cc2ccc(NC(=O)c3ccccc3)cc21 [Example 106, 6-Benzamido-1-methyl-2-indoloylguanidine hydrochloride] | * |

Same assay, conditions: minimum effective concentration; vascular smooth muscle cells isolated from the rat thoracic aorta; change in cell viability during acid loading

| Structure (SMILES) | Inhibition of Na^+/H^+ Exchanger MEC [µM] |
| --- | --- |
| Cn1c(C(=O)N=C(N)N)cc2cc(O)ccc21 [Example 91, 5-hydroxy-1-methyl-2-indoloylguanidine hydrochloride] | 3.0 |
| Cn1c(C(=O)N=C(N)N)cc2cccc(O)c21 [Example 92, 7-Hydroxy-1-methyl-2-indoloylguanidine hydrochloride] | 0.3 |
| Cn1c(C(=O)N=C(N)N)cc2c(O)cccc21 [Example 93, 4-Hydroxy-1-methyl-2-indoloylguanidine hydrochloride] | 1.0 |
| Cn1c(C(=O)N=C(N)N)cc2ccc(O)cc21 [Example 94, 6-Hydroxy-1-methyl-2-indoloylguanidine hydrochloride] | 1.0 |
| Cn1c(C(=O)N=C(N)N)cc2c(Cl)ccc(O)c21 [Example 95, 4-Chloro-7-hydroxy-1-methyl-2-indoloylguanidine hydrochloride] | 0.003 |
| Cn1c(C(=O)N=C(N)N)cc2c(Cl)cc(O)cc21 [Example 96, 4-Chloro-6-hydroxy-1-methyl-2-indoloylguanidine hydrochloride] | 0.03 |
| CC(=O)Nc1cccc2c1cc(C(=O)N=C(N)N)n2C [Example 97, 4-acetamido-1-methyl-2-indoloylguanidine hydrochloride] | >10 |
| CC(=O)Nc1ccc2c(c1)cc(C(=O)N=C(N)N)n2C [Example 98, 5-Acetamido-1-methyl-2-indoloylguanidine hydrochloride] | >10 |
| CC(=O)Nc1cccc2cc(C(=O)N=C(N)N)n(C)c12 [Example 99, 7-Acetamido-1-methyl-2-indoloylguanidine hydrochloride] | 10 |
| CC(=O)Nc1ccc2cc(C(=O)N=C(N)N)n(C)c2c1 [Example 100, 6-Acetamido-1-methyl-2-indoloylguanidine hydrochloride] | 3.0 |
| NC(N)=NC(=O)c1cc2ccccc2n1O [Example 101, 1-Hydroxy-2-indoloylguanidine hydrochloride] | >10 |
| COn1c(C(=O)N=C(N)N)cc2ccccc21 [Example 102, 1-methoxy-2-indoloylguanidine hydrochloride] | 10 |
| Cn1c(C(=O)N=C(N)N)cc2cc(NC(=O)c3ccccc3)ccc21 [Example 103, 5-Benzamido-1-methyl-2-indoloylguanidine hydrochloride] | >10 |
| Cn1c(C(=O)N=C(N)N)cc2c(NC(=O)c3ccccc3)cccc21 [Example 104, 4-Benzamido-1-methyl-2-indoloylguanidine hydrochloride] | >10 |
| NC(N)=NC(=O)c1cc2ccccc2n1Cc1ccc(N)cc1 [Example 107, 1-(4-aminobenzyl)-2-indoloylguanidine] | 0.1 |
| NC(N)=NC(=O)c1cc2ccccc2n1CCO [Example 108, 1-(2-hydroxyethyl)-2-indoloylguanidine hydrochloride] | >10 |
| NC(N)=NC(=O)c1cc2ccccc2n1CCCO [Example 109, 1-(3-Hydroxypropyl)-2-indoloylguanidine hydrochloride] | 1.0 |
| NC(N)=NC(=O)c1cc2ccccc2n1CCCCO [Example 110, 1-(4-Hydroxybutyl)-2-indoloylguanidine hydrochloride] | 0.3 |
| Cc1c(C(=O)N=C(N)N)[nH]c2ccccc12 [Example 111, 3-methyl-2-indoloylguanidine hydrochloride] | 10 |
